Results: article PMC6919601, “Identification of Plasmodium dipeptidyl aminopeptidase allosteric inhibitors by high throughput screening” (PLoS ONE, 2019)
Where “and” joins values, the source holds several entries; their conditions need not be identical. Equal entries are not always repeated. Hit rate of the full screen: of about 110,000 compounds, about 230 (0.21%) showed an effect of 50% or more. Some of the results follow.

target: DPAP1 (Plasmodium falciparum, UniProt Q8IIJ9); test: primary screen, percent inhibition; read by cleavage of a fluorogenic dipeptide substrate; higher = more effect of the substance; set-up: species or system P. falciparum D10 trophozoite lysates; single well
Sequence (Q8IIJ9 whole entry, looked up): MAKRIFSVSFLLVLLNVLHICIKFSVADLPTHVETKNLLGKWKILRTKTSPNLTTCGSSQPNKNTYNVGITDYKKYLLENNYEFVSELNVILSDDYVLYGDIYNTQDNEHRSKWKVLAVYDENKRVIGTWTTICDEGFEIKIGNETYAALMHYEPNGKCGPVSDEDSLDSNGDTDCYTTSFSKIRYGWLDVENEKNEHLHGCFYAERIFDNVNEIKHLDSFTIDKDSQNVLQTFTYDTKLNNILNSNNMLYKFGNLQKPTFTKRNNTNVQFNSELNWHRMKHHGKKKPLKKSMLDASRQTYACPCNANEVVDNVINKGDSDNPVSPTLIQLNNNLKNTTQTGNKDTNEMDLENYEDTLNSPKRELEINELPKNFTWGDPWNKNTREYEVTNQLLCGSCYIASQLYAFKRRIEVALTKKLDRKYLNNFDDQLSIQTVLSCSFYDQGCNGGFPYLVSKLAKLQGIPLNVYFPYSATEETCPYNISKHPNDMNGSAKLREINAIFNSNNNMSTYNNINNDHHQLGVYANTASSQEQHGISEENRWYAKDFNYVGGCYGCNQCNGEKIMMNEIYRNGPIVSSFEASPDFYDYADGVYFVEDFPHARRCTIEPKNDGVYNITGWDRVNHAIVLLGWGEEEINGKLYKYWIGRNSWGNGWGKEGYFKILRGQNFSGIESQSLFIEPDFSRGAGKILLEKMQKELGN
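Note: 30 min substrate incubation versus DMSO and 10 µM JCP410 controls.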

Row | SMILES | % Inhibition @ 10 uM
1 | Clc1cccc(Nc2nc(N3CCOCC3)nc(-n3cccn3)n2)c1 | -9.07%
2 | Cn1c(=O)c2c(ncn2CC(=N)N2CCCCC2)n(C)c1=O | 6.99%
3 | N=C(OCc1ccccc1)c1cncc(N2CCOCC2)n1 | 18%
4 | CCOC(=O)c1c(NC(=O)c2cc3c(C)nn(-c4ccccc4)c3s2)sc2c1CCCC2 | -6.7%
5 | CC(C)(C)NC(=O)CCC(=O)c1ccccc1 | 1.81%
6 | Nc1cc(OCc2ccccc2)ccc1F | -3.19%
7 | Cc1cc(C(=O)N[C@@H](CC(C)C)C(=O)NCC#N)ccc1-c1ccccc1 | 3.19%
8 | COc1cc(C(=O)NCc2nnc(SCC(=O)c3ccccc3)o2)cc(OC)c1OC | 1.85%
9 | CC(CCN1CCCC(CO)C1)c1ccccc1 (centres unmarked) | -4.14%
10 | CN(CC1CC=CCC1)CC(O)c1ccccc1 (centres unmarked) | -3.15%
11 | Cc1ccc(NC(=O)c2cccnc2Cl)cc1C | -0.0619%
12 | CC(=O)N1CCC2(CC1)CC(=O)c1cc(OCC(=O)NCCc3ccc(Cl)cc3)ccc1O2 | -4.07%
13 | Fc1ccc(-c2noc3ncnc(NCc4ccc(CN5CCCCCC5)o4)c23)cc1 | 1.23%
14 | Cc1ccc2oc(=O)c3cc(C(=O)N(C)Cc4ccco4)sc3c2c1 | -3.68%
15 | Cc1nc2cc(-c3ccccc3)nn2c(C)c1CC(=O)NCCc1ccc(Cl)cc1 | 0.953%
16 | Cc1c(C(=O)NCCc2ccccc2)oc2ccc(S(=O)(=O)N3CCCCCC3)cc12 | -2.95%
17 | Cc1ccc(C(=O)NC2(C(F)(F)F)N=C(c3ccccc3F)NC2=O)cc1 (centres unmarked) | -5.04%
18 | CCCc1cc2c(=O)c(-c3nc4ccccc4s3)c(C(F)(F)F)oc2cc1O | 4.9%
19 | CC(=O)N/C(=C/c1ccccc1Br)C(=O)NC(C)(C)C | -3.78%
20 | CCCS(=O)(=O)c1nc(S(=O)(=O)c2ccc(C)cc2)c(N2CCN(CC)CC2)s1 | 2.76%
21 | CCCn1c(SCc2nc(-c3ccc(C)cc3)no2)nnc1-c1ccncc1 | 1.25%
22 | N#CC1=C(N)N(c2cc(C(F)(F)F)ccc2Cl)C2=C(C(=O)CCC2)C1c1cccnc1 (centres unmarked) | -6.62%
23 | CC[C@H](NC(=O)[C@H](CS(=O)(=O)Cc1ccccn1)NC1=NS(=O)(=O)c2ccccc21)C(=O)c1nc(-c2ccccc2)no1 | -6.56%
24 | Cc1cccc(N2CCN(C(=O)C3C4C=CC(C4)C3C(=O)O)CC2)c1C (centres unmarked) | 3.67%
25 | CC1=C(C(=O)OCC(C)C)C(c2ccc(Cl)c(Cl)c2)NC(=O)N1 (centres unmarked) | 0.736%
26 | CN(C1CCCC1)C1CCN(C(=O)CNC(=O)/C=C/c2cccc(C(F)(F)F)c2)CC1 | 0.689%

Row | SMILES | % Inhibition @ 10 uM
27 | C#CCOc1cc(Br)c(/C=C2\NC(=O)NC2=O)cc1OC | -5.48%
28 | Cn1nccc1C#CCN1CCOCC1 | 0.937%
29 | Cc1cccnc1NC(=O)c1noc2c1COc1ccccc1-2 | -3.51%
30 | Oc1nnc2n1CCCCC2 | 1.91%
31 | CC(C)C[C@H](NC(=O)c1cccc2ccccc12)C(=O)NCC#N | -1.41%
32 | CC(=O)OC1C2CCC1C(N1CCCCC1)CC2 (centres unmarked) | -3.62% and -1.66%
33 | COc1cc(C(=O)O)ccc1OCc1ccc(Cl)cc1 | -0.511%
34 | O=C(NCCc1ccc(Cl)cc1)c1csc2c1CCCC2 | -3.21%
35 | Cc1nnc(SCCc2ccccc2)nc1O | -1.1%
36 | O=C(NCC(F)(F)C(F)F)c1cccnc1 | 1.04%
37 | O=C(NCCO)C12CC3CCC(CC(C3)C1)C2 | 2.58%
38 | CCc1nnc(NC(=O)CSc2nc[nH]n2)s1 | 8.01%
39 | COC(=O)c1c(C)nn2c3ccccc3n(C)c12 | -7.19%
40 | Clc1ccc2c(c1)C=C(N1CCNCC1)c1ccccc1S2 | 2.64%
41 | O=c1c2ccccc2nc(-c2ccccc2F)n1-c1ccccc1 | 2.09%
42 | COc1ccc(C(=O)Nc2ccc(N(C)C)cc2)cc1OC | -2.18%
43 | Cc1csc2nc(CNC(=O)CCC(=O)O)cn12 | -4.24%
44 | COc1cc(SC)ccc1C(=O)Nc1cccc(CCc2ccccn2)c1 | 2.76%
45 | COc1ccc(OC)c(COC(=O)N[C@@H](CC(C)C)C(=O)NCC#N)c1 | -4.72%
46 | COc1ccc(N(CC(=O)N2CCOCC2)S(C)(=O)=O)c(OC)c1 | -4.72%
47 | COc1ccc(-n2ncc(C(=O)NCCCN3CCN(C)CC3)c2C2CCNCC2)cc1 | -7.13%
48 | COc1cc2c(cc1OC)C1=C(C#N)CN(CCc3ccccc3)CN1CC2 | 5.83%
49 | CCOC(=O)C1=C(C)OC(N)=C(C#N)C1c1ccccc1 (centres unmarked) | -1.77%
50 | Nc1cc(C(=O)O)c(Cl)cc1C(=O)O | 1.64%
51 | CSc1nc(N)nc(SCc2c(F)cccc2Cl)c1C#N | 1.76%
52 | Cc1ccc(S(=O)(=O)N(CC(=O)NC(C)C)c2ccc(Br)cc2)cc1 | -2.92%

Row | SMILES | % Inhibition @ 10 uM
53 | CC(C)(C(=O)O)N1C(=O)c2ccccc2C1=O | 1.27%
54 | N#CCn1nc2ccccc2n1 | -2.17%
55 | CC1=C(C(=O)OC2CCCCC2)C(c2cccc(O)c2)C2=C(O)CC(C)(C)CC2=N1 (centres unmarked) | -2.18%
56 | COc1ccccc1/C=C1\C(=O)NC(=S)N(c2ccc(C)cc2)C1=O | -2.5%
57 | Cc1ccc(C2C(C(=O)c3ccc4c(c3)OCCO4)=C(O)C(=O)N2CCCN(C)C)o1 (centres unmarked) | 1.64%
58 | CC(C)=CC/C=C1\CCC(C(=O)O)C(C(=O)O)C1 (centres unmarked) | 2%
59 | CCOc1ccccc1CNCc1cccn1-c1nnc(N2CCN(C3CCCCC3)CC2)s1 | 1.41%
60 | NC(=S)Cc1nc(-c2cc3ccccc3oc2=O)cs1 | 23.7%
61 | Cc1ccc(Cn2nnc3c(=O)n(CC(=O)NC4CCCC4)cnc32)cc1 | -0.431%
62 | Cn1c2c(c(=O)n(C)c1=O)CN(CCc1ccc(Cl)cc1)CN2 | -6.67%
63 | CCN1CCn2c3c(c4cc(Cl)ccc42)CCCC31 (centres unmarked) | 3.15%
64 | O=c1c2ccccc2nc(Cc2ccccc2)n1-c1ccc(O)cc1 | 1.15%
65 | CNC(=O)c1c(O)nc2ccccc2c1O | -3.55%
66 | CC(C)(C)C(=O)NCCCc1nc2ccccc2n1CCOc1ccccc1 | -2.28%
67 | COc1ccc(Cc2nc(S(=O)(=O)c3ccc(C)cc3)c(N3CCOCC3)o2)cc1 | -1.72%
68 | Cc1nc2c(O)nc3ccccc3c2o1 | -1.59%
69 | COc1ccc2c(c1)CCC1C2=NN(C(C)=O)C1c1ccc(C)cc1 (centres unmarked) | 0.315%
70 | N#Cc1cc2c(nc1SCC(=O)Nc1ccc(F)cc1)CCC2 | 5.83%
71 | CC(C)C(NC(=O)/C(=C/c1ccccc1)NC(=O)c1ccc(Br)o1)C(=O)O (centres unmarked) | -1.07%
72 | O=C(Nc1ccc2c(c1)OCCO2)C1CCC1 | -3.37%
73 | Cc1cc(C(=O)N2CCN(C)CC2)c2c(C)nn(-c3ccccc3)c2n1 | 3.75%
74 | CCOC(=O)c1cnc(SCC(=O)NC(C)c2ccccc2)nc1N (centres unmarked) | 2.21%
75 | Fc1cccc(CN2CCN(c3ccccc3F)CC2)c1 | 0.847%
76 | O=c1oc2c(CN3CCOCC3)c(O)ccc2cc1-c1nc2ccccc2s1 | 3.8%
77 | CCOC(=O)c1cnc2cc(Cl)c(Oc3ccc(Cl)cc3)cc2c1O | -4.23%
78 | CCOC(=O)N1CCc2c(sc3nc(SC)n(Cc4ccccc4)c(=O)c23)C1 | -4.12%

Row | SMILES | % Inhibition @ 10 uM
79 | CCCC1=C(C(=O)OCC)C(c2ccoc2)C(C#N)=C(N)O1 (centres unmarked) | -6.47%
80 | Cc1c(C(N)=O)sc(NC(=O)COc2ccccc2)c1C#N | -4.65%
81 | O=C(NCc1ccccn1)c1cccc(C(=O)NCc2ccccn2)c1 | 3.84%
82 | CCCN1C(=O)c2[nH]nc(-c3ccccc3O)c2C1c1cccc(Br)c1 (centres unmarked) | 3.62%
83 | CCCCNC(=S)N1CCCCC1c1cccnc1 (centres unmarked) | 4.67%
84 | COc1ccc(C(CC(=O)Nc2cc(C)ccn2)N2Cc3ccccc3C2=O)cc1OC (centres unmarked) | -5.56%
85 | N#Cc1ccccc1NC(=O)c1ccccc1-c1ccccc1C(=O)Nc1ccccc1C#N | -2.18%
86 | COc1ccc(C)cc1NC(=O)c1c(Cl)c(C)nn1C | -1.64%
87 | CCCCSc1nc(-c2cccs2)cc(C(F)(F)F)c1C#N | 60.7%
88 | CC1=C(C(=O)OC2CCCC2)C(c2cccc(Cl)c2)NC(=O)N1 (centres unmarked) | 5.01%
89 | COc1cc2c(cc1NC(=O)c1c(OC)cccc1OC)oc1ccccc12 | -5.49%
90 | CCOC(=O)N1CCC(N2CCN(c3cccc(C(F)(F)F)c3)CC2)CC1 | 1.38%
91 | CCOC(=O)N1CCC(/N=c2\c(O)c(O)\c2=N/CCCN(C)Cc2ccccc2)CC1 | -1.44%
92 | CC1CN(C(=O)c2cccs2)CC(C)O1 (centres unmarked) | 0.177%
93 | O=C(c1ccc(Br)o1)N1CCN(c2ccccc2F)CC1 | 5.69%
94 | O=C(C1CCC(CNc2c(N3CCOCC3)c(=O)c2=O)CC1)N1CCCCC1 (centres unmarked) | 1.22%
95 | CCOc1ccc2c3c(c(=O)oc2c1)CCC3 | -3.38%
96 | Brc1ccc(N2N=C(c3ccccn3)CC2c2ccccc2)cc1 (centres unmarked) | -3.15%
97 | CC(C)(C)c1ccc(S(=O)(=O)c2cc3ccccc3oc2=O)cc1 | -1.3%
98 | COc1ccc(-c2cc(C)no2)cc1S(=O)(=O)NCc1ccccc1Cl | -2.46%
99 | O=C1NCCCC2c3cc(O)c4ccccc4c3OC12N1CCCCC1 (centres unmarked) | 1.03%
100 | O=C(CSCc1c(Cl)cccc1Cl)Nc1cc(C(=O)O)cc(C(=O)O)c1 | 2.67%
101 | c1ccc(OCCCCN2CCCC2)cc1 | 1.13%
102 | N#C/C(=C\c1ccc(Br)o1)c1nc(-c2ccc(-c3ccccc3)cc2)cs1 | 0.705%
103 | NCC(c1ccccc1)c1ccc(Cl)cc1Cl (centres unmarked) | -1.38%
104 | CC1CCC(N[C@H]2CC[C@H](O)CC2)CC1 (some centres unmarked) | 3.19%
